Source: the supplement of paper PMC9446081
The whole screen tested about 39,000 compounds, of which about 220 (0.56%) showed activity. The list shows a part of the results.

Test system: Escherichia coli K-12 BW25113
Test: relative growth (OD600 normalised to plate interquartile mean) (fraction); higher = less growth inhibition, active = 0.2 or less
Conditions: 50 µM; LB; incubation time: overnight (16-24 h)
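Also: static incubation at 37 °C against the wild-type strain, values averaged over two biological replicates.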

Row | Structure (SMILES) | relative growth
1 | COC[C@@H](C)NC(=O)C1CN(C(C)=O)C1 | inactive: 0.976
2 | N[C@@H](CN(O)[N+][O-])C(=O)O | inactive: 0.979
3 | C[C@@H]1CCCCO[C@@H](CN(C)S(=O)(=O)c2cccs2)[C@H](C)CN([C@H](C)CO)C(=O)c2cc(NC(=O)Nc3ccccc3)ccc2O1 | inactive: 1.05
4 | C[C@H](O)C#Cc1cnc2c(c1)C(=O)N([C@H](C)CO)C[C@@H](C)[C@H](CN(C)Cc1cncnc1)O2 | inactive: 1
5 | COc1ccc(CNC(=O)N(C)C[C@@H]2OCc3ccccc3-c3c(n(C)c4ccccc34)C(=O)N([C@H](C)CO)C[C@@H]2C)cc1 | inactive: 1.02
6 | CC(C)NC(=O)N(C)C[C@@H]1OCCCC[C@@H](C)Oc2ccc(NC(=O)C3CCCCC3)cc2C(=O)N([C@@H](C)CO)C[C@H]1C | inactive: 0.957
7 | COc1ccc(S(=O)(=O)Nc2ccc3c(c2)CC(=O)N([C@H](C)CO)C[C@@H](C)[C@@H](CN(C)S(=O)(=O)c2ccc(F)cc2)O3)cc1 | inactive: 1.01
8 | COc1ccc(CNC(=O)C[C@H]2CC[C@@H]3[C@@H](COc4ccc(NC(=O)C(C)C)cc4C(=O)N3C)O2)cc1 | inactive: 0.983
9 | NNC(=O)c1ccccc1O | inactive: 0.978
10 | COc1ccccc1CNC(=O)C[C@@H]1C[C@H]2c3cc(NC(=O)C4CCOCC4)ccc3O[C@H]2[C@@H](CO)O1 | inactive: 1.01
11 | COc1ccc(CN(C)C[C@H]2OCCCC[C@H](C)Oc3ccc(NC(=O)CCC(F)(F)F)cc3C(=O)N([C@H](C)CO)C[C@@H]2C)cc1 | inactive: 1.01
12 | Cc1ccc(S(=O)(=O)N(C)C[C@H]2OCCCC[C@@H](C)Oc3ccc(NC(=O)Cc4ccccc4)cc3C(=O)N([C@H](C)CO)C[C@@H]2C)cc1 | inactive: 0.999
13 | Cc1cccc(C)c1NC(=O)c1ccccc1C(=O)O | inactive: 0.975
14 | C[C@@H]1COC(=O)[C@H](Cc2ccc(F)cc2)CC=CC[C@H](CC(=O)N(CCO)Cc2ccccc2)C(=O)N1 | inactive: 1.02
15 | C[C@@H]1CN([C@@H](C)CO)C(=O)c2cc(N(C)C)ccc2O[C@@H](C)CCCCO[C@@H]1CN(C)C(=O)CCCN(C)C | inactive: 1
16 | C[C@@H]1CCCCO[C@H](CN(C)Cc2ccc3c(c2)OCO3)[C@H](C)CN([C@@H](C)CO)C(=O)c2cc(NC(=O)Nc3ccccc3)ccc2O1 | inactive: 0.981
17 | CNC[C@@H]1Oc2ccc(NS(=O)(=O)c3cn(C)cn3)cc2C(=O)N([C@@H](C)CO)C[C@H]1C | inactive: 1.02
18 | C[C@@H]1CN([C@@H](C)CO)C(=O)c2cc(NS(=O)(=O)c3ccc(Cl)cc3)ccc2O[C@@H](C)CCCCO[C@@H]1CN(C)C(=O)Nc1ccc(F)cc1 | inactive: 1.01
19 | Nc1ccn2ccnc2c1 | inactive: 1.01
20 | COc1ccc2c3c1OC1CC(O)C=CC31CCN(C)C2 (centres undefined) | inactive: 0.974
21 | C[C@@H]1CN([C@@H](C)CO)C(=O)Cc2cc(NC(=O)Nc3cccc4ccccc34)ccc2O[C@H]1CN(C)C(=O)NC1CCCCC1 | inactive: 1.01
22 | COc1ccccc1C#Cc1cnc2c(c1)C(=O)N([C@H](C)CO)C[C@H](C)[C@H](CN(C)C(=O)c1ccc3c(c1)OCO3)O2 | inactive: 1

Row | Structure (SMILES) | relative growth
23 | CCC(=O)N(C)C[C@@H]1Oc2ncc(C#C[C@@H](C)O)cc2C(=O)N([C@H](C)CO)C[C@@H]1C | inactive: 1.01
24 | C[C@@H]1CN([C@H](C)CO)C(=O)Cc2cc(NS(C)(=O)=O)ccc2O[C@H]1CN(C)S(=O)(=O)c1cccs1 | inactive: 1.02
25 | C#CCN(O[C@@H](/C=C/[C@@H](O)Cc1ccccc1)C1CC1)[C@@H](Cc1ccc(-n2cc(COc3ccccc3/C=C(C)/C=C/C(=O)NO)nn2)cc1)C(=O)OC | inactive: 1
26 | C[C@@H]1CCCCO[C@@H](CN(C)C(=O)c2ccccc2)[C@@H](C)CN([C@H](C)CO)C(=O)c2cc(NC(=O)Nc3ccc(C(F)(F)F)cc3)ccc2O1 | inactive: 1.02
27 | COc1ccccc1NC(=O)N(C)C[C@@H]1Oc2ncc(C#CC(C)C)cc2C(=O)N([C@H](C)CO)C[C@H]1C | inactive: 1.02
28 | COC1(NC(=O)C(C(=O)[O-])c2ccc(O)cc2)C(=O)N2C(C(=O)[O-])=C(CSc3nnnn3C)COC21.[Na+].[Na+] (centres undefined) | active: 0.0483
29 | CN(C)C(=O)C[C@@H]1CC[C@@H]2[C@H](COc3ccc(NS(=O)(=O)c4cccc(F)c4)cc3C(=O)N2C)O1 | inactive: 0.993
30 | COc1ccc(S(=O)(=O)Nc2ccc3c(c2)C(=O)N([C@@H](C)CO)C[C@H](C)[C@@H](CN(C)Cc2ccncc2)O3)cc1 | inactive: 0.992
31 | CCCCN1CNC(=S)NC1 | inactive: 1.04
32 | C[C@@H]1CN([C@@H](C)CO)C(=O)c2cc(NS(=O)(=O)c3cn(C)cn3)ccc2O[C@@H]1CN(C)CC1CC1 | inactive: 0.97
33 | C[C@@H]1CCCCO[C@@H](CN(C)C(=O)Nc2ccc3c(c2)OCO3)[C@H](C)CN([C@@H](C)CO)C(=O)c2cc(NC(=O)Nc3ccc(F)cc3)ccc2O1 | inactive: 1.02
34 | C[C@@H]1CN([C@H](C)CO)C(=O)Cc2cc(NC(=O)C3CCCCC3)ccc2O[C@@H]1CN(C)Cc1ccc(C(F)(F)F)cc1 | inactive: 1.02
35 | COc1ccc(NC(=O)Nc2ccc3c(c2)CC(=O)N([C@@H](C)CO)C[C@@H](C)[C@H](CN(C)C(=O)Nc2cccc4ccccc24)O3)cc1 | inactive: 0.977
36 | C[C@H]1CN([C@@H](C)CO)C(=O)Cc2cc(NC(=O)Cn3cnnn3)ccc2O[C@@H]1CN(C)Cc1ccncc1 | inactive: 0.99
37 | Cc1nc(=O)c2c([nH]1)CCSC2 | inactive: 0.963
38 | C[C@H](CO)N1C[C@H](C)[C@H](CN(C)Cc2ccc(C(=O)Nc3ccccc3N)cc2)Oc2ccc(NC(=O)CCC(F)(F)F)cc2C1=O | inactive: 0.998
39 | CC(C)CNC(=O)[C@@]1(c2ccc([N+](=O)[O-])cc2)CC(=O)N(CC23CC4CC(CC(C4)C2)C3)[C@@H]1c1ccc(CO)cc1 | inactive: 1.02
40 | O=C(NCc1nc2ccccc2[nH]1)C1=C[C@H](c2csc3ccccc23)C[C@H](OCc2ccc(CO)cc2)O1 | inactive: 0.993
41 | CC(C)NC(=O)Nc1ccc2c(c1)C(=O)N([C@@H](C)CO)C[C@H](C)[C@H](CN(C)Cc1ccc(C(F)(F)F)cc1)OCCCC[C@H](C)O2 | inactive: 1.01
42 | CCCCN1C[C@H](O)[C@@H](O)[C@H](O)[C@H]1CO | inactive: 1.02
43 | N[C@@H](C(=O)O)c1ccc(C(=O)O)c(C(=O)O)c1 | inactive: 1.02
44 | CO[C@@H]1CN(C)C(=O)c2cc(NS(C)(=O)=O)ccc2OC[C@H](C)N(S(C)(=O)=O)C[C@H]1C | inactive: 0.993

Row | Structure (SMILES) | relative growth
45 | N=C(N)NC(=O)c1nc(Cl)c(N)nc1N | inactive: 0.988
46 | Cn1ccc2ccc(CN)cc21 | inactive: 0.985
47 | C[C@H](CO)N1C[C@H](C)[C@H](CN(C)Cc2ccc3c(c2)OCO3)OCCCC[C@H](C)Oc2ccc(NC(=O)Cc3ccccc3)cc2C1=O | inactive: 1.01
48 | CNC[C@@H]1Oc2c(NS(=O)(=O)c3cn(C)cn3)cccc2C(=O)N([C@@H](C)CO)C[C@H]1C | inactive: 0.999
49 | C[C@H](CO)N1C[C@H](C)[C@H](CN(C)C(=O)Nc2ccccc2)OCCCC[C@H](C)Oc2ccc(NS(=O)(=O)c3ccc(Cl)cc3)cc2C1=O | inactive: 0.987
50 | COc1ccc(S(=O)(=O)Nc2ccc3c(c2)C(=O)N([C@H](C)CO)C[C@H](C)[C@@H](CN(C)C(=O)Nc2c(C)noc2C)OCCCC[C@@H](C)O3)cc1 | inactive: 0.992
51 | C[C@@H]1CN([C@H](C)CO)C(=O)Cc2cc(N(C)C)ccc2O[C@@H]1CN(C)S(=O)(=O)c1cn(C)cn1 | inactive: 0.989
52 | COc1ccc(S(=O)(=O)N(C)C[C@H]2Oc3cc(C#CC4CC4)ccc3S(=O)(=O)N([C@H](C)CO)C[C@@H]2C)cc1 | inactive: 1.04
53 | C[C@H](CO)N1C[C@H](C)[C@@H](CN(C)Cc2ccc(C(=O)O)cc2)OCCCC[C@H](C)Oc2ccc(NS(=O)(=O)c3cccs3)cc2C1=O | inactive: 1.01
54 | C[C@H]1CN([C@@H](C)CO)C(=O)Cc2cc(NC(=O)Nc3ccc(C(F)(F)F)cc3)ccc2O[C@@H]1CN(C)Cc1ccccc1 | inactive: 0.99
55 | C[C@@H]1CN([C@@H](C)CO)C(=O)Cc2cc(NC(=O)CCN3CCOCC3)ccc2O[C@H]1CN(C)C(=O)Nc1ccc2c(c1)OCO2 | inactive: 1.03
56 | COCCOC(=O)C1=C(C)NC(C)=C(C(=O)OCC=Cc2ccccc2)C1c1cccc([N+](=O)[O-])c1 (centres undefined) | inactive: 1.01
57 | c1ccc(Nc2nc(-c3ccccc3)nc3ccccc23)cc1 | inactive: 0.926
58 | O=C(CS)NCCCCCCNC(=O)[C@@H]1C[C@@H]2C(=O)N3CCC[C@H]3C(=O)N2[C@@H]1c1cccc(OCCO)c1 | inactive: 1.01
59 | C[C@@H]1CN([C@H](C)CO)C(=O)c2cc(NC(=O)Nc3cccc4ccccc34)ccc2O[C@@H](C)CCCCO[C@@H]1CN(C)S(=O)(=O)c1cn(C)cn1 | inactive: 1.03
60 | Nc1ccccc1CO | inactive: 1.01
61 | Cc1nn(C)c(C)c1CN | inactive: 1
62 | C/C=C/c1ccc([C@H]2[C@@H](CO)N(S(=O)(=O)CC)C23CN(C(=O)CN(C)C)C3)cc1 | inactive: 1
63 | O=C(C[C@H]1CC[C@@H](NC(=O)CN2CCOCC2)[C@@H](CO)O1)NCc1cccc(F)c1 | inactive: 1
64 | Cc1noc(C)c1NC(=O)N(C)C[C@H]1Oc2c(NC(=O)C3CCOCC3)cccc2C(=O)N([C@H](C)CO)C[C@H]1C | inactive: 0.996
